Results reported in the supplement of paper PMC12217912.
Some of the results follow. Sequences were assembled here from the parent chain. Inactive controls read about 0.05.

B1: TEV protease; numbered along this chain (parent)
chain: MGESLFKGPRDYNPISSSICHLTNESDGHTTSLYGIGFGPFIITNKHLFRRNNGTLVVQSLHGVFKVKDTTTLQQHLVDGRDMIIIRMPKDFPPFPQKLKFREPQREERICLVTTNFQTKSMSSMVSDTSCTFPSGDGIFWKHWIQTKDGQCGSPLVSTRDGFIVGIHSASNFTNTNNYFTSVPKNFMELLTNQEAQQWVSGWRLNADSVLWGGHKVFMVKPEEPFQPVKEATQL

Variants of: B1
Test: raw area under fraction-flipped curve 0-4 h after induction (AUC4h, not background-subtracted), DNA-recorder readout of cleavage of the substrate (dimensionless); higher = more cleavage of the substrate by the protease variant
Conditions: temperature: 34 °C; time window: 0-4 h after rhamnose induction
Description: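 In vivo DNA recorder in E. coli TOP10(DE3) ΔrhaA at 34 °C. Each TEVp single-site mutant (parent TEVp 0) is paired with a single-site variant of the 7-mer TEVs (canonical ENLYFQ|S). The substrate sits between flexible linkers in a Bxb1-sfGFP-TEVs-SsrA fusion, so cleavage stabilises Bxb1 and speeds flipping of a recombination array, read by NGS. The value is the raw area under the fraction-flipped curve over 0-4 h after rhamnose induction (AUC4h), with ≥20 reads per time point. It is not background-subtracted; inactive controls average about 0.047.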
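Note: Bxb1 expression induced with 0.2% (w/v) L-rhamnose at OD600 near 0.5, cultures sampled hourly, flipped fraction per protease–substrate barcode pair counted by paired-end Illumina sequencing.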

Variant	area with substrate ENAYFQS	area with substrate ENDYFQS	area with substrate ENEYFQS	area with substrate ENIYFQS	area with substrate ENKYFQS	area with substrate ENMYFQS	area with substrate ENNYFQS	area with substrate ENQYFQS	area with substrate ENTYFQS	area with substrate ENVYFQS	area with substrate ENCYFQS	area with substrate ENFYFQS	area with substrate ENGYFQS	area with substrate ENHYFQS	area with substrate ENPYFQS	area with substrate ENRYFQS	area with substrate ENSYFQS	area with substrate ENWYFQS	area with substrate ENYYFQS
T159L	0.0711	0.0572	0.0633	0.0999	0.0664	0.102	0.062	0.0698	0.0507	0.0964									
F140E	0.0674	0.079	0.057	0.0546	0.0604			0.0593	0.0629	0.067	0.0706	0.0689	0.0666	0.0472	0.072	0.0712	0.0711	0.0503	0.0666
S169R	0.0599	0.0634	0.0664	0.065			0.0677	0.0536	0.0609		0.057			0.0687	0.0588	0.0527	0.0584	0.063	0.0625
S135Y	0.0758	0.0547	0.0494		0.0529	0.0594	0.114	0.0624	0.075	0.0589	0.0624	0.0554	0.0798	0.0528	0.0499	0.0642	0.0464		
V183E	0.0517	0.0437	0.0449		0.0823			0.0625	0.0639		0.0611	0.0551	0.03	0.044	0.0511		0.0497		
V183F	0.0505		0.0547	0.107		0.083	0.0711	0.0717	0.0675	0.0721	0.0624		0.0792	0.0626	0.0621		0.0629		
V183Y	0.0622	0.0551	0.0564		0.0553		0.0581	0.0513		0.0581	0.0543	0.0434	0.0719			0.0578	0.0596	0.0516	0.0383
D137C	0.0522	0.0737	0.056			0.0941	0.065		0.0652	0.0716	0.0754	0.0685	0.0886		0.0495	0.0312	0.0704		0.0496
Q151C	0.0591	0.0623	0.0646	0.0856	0.0285	0.0629	0.0635	0.062	0.062	0.0715	0.057	0.0618	0.072	0.0631		0.0581	0.0729		
Q151I	0.0588	0.0691	0.06		0.0629	0.0565	0.0605	0.051	0.0563	0.0665	0.0767	0.0603	0.0597	0.0603	0.0514		0.0548	0.0113	0.0584
Q151W	0.0593	0.0586	0.0632	0.0767		0.0624	0.0589	0.0638	0.0674	0.0744	0.0799	0.0656	0.0698	0.0643	0.0599	0.059	0.065	0.0739	
I164Y	0.0504	0.049	0.0517	0.0463			0.0647		0.0584	0.0427	0.0601	0.0386				0.0421	0.0643	0.077	
